Scores with a large standard error are left out. Two further conditions of the source, in which the scores hardly spread, are not listed. Read del as a deletion of the residues named and ins as an insertion between two positions. For part of these data: How much ogerin was present is not stated here.
B1: GPR68, Q15743 (parent)
chain: MGNITADNSSMSCTIDHTIHQTLAPVVYVTVLVVGFPANCLSLYFGYLQIKARNELGVYLCNLTVADLFYICSLPFWLQYVLQHDNWSHGDLSCQVCGILLYENIYISVGFLCCISVDRYLAVAHPFRFHQFRTLKAAVGVSVVIWAKELLTSIYFLMHEEVIEDENQHRVCFEHYPIQAWQRAINYYRFLVGFLFPICLLLASYQGILRAVRRSHGTQKSRKDQIQRLVLSTVVIFLACFLPYHVLLLVRSVWEASCDFAKGVFNAYHFSLLLTSFNCVADPVLYCFVSETTHRDLARLRGACLAFLTCSRTGRAREAYPLGAPEASGKSGAQGEEPELLTKLHPAFQTPNSPGSGGFPTGRLA

How the values were obtained:
[1] = variants of: B1; assay: cAMP reporter score (Enrich2 score, wild type = 0); higher = more signal; HEK293T, FACS bins
[2] = variants of: B1; assay: surface expression score (Enrich2 score, wild type = 0); higher = more signal; HEK293T, FACS bins

| Variant | cAMP reporter score ([1]; pH 5.5) | cAMP reporter score ([1]; pH 6) | cAMP reporter score ([1]; pH 6, modulator: ogerin) | cAMP reporter score ([1]; pH 6.5, modulator: ogerin) | surface expression score [2] |
| --- | --- | --- | --- | --- | --- |
| MGNITADNSSMSCTIDHTIHQTLAPVVYVTVLVVGFPANCLSLYFGYLQIKARNELGVYLCNLTVADLFYICSLPFWLQYVLQHDNWSHGDLSCQVCGILLYENIYISVGFLCCISVDRYLAVAHPFRFHQFRTLKAAVGVSVVIWAKELLTSIYFLMHEEVIEDENQHRVCFEHYPIQAWQRAINYYRFLVGFLFPICLLLASYQGILRAVRRSHGTQKSRKDQIQRLVLSTVVIFLACFLPYHVLLLVRQVWEASCDFAKGVFNAYHFSLLLTSFNCVADPVLYCFVSETTHRDLARLRGACLAFLTCSRTGRAREAYPLGAPEASGKSGAQGEEPELLTKLHPAFQTPNSPGSGGFPTGRLA [S252Q] | -1 | -1.23 | -1.39 | -2.2 | – |
| MGNITADNSSMSCTIDHTIHQTLAPVVYVTVLVVGFPANCLSLYFGYLQIKARNELGVYLCNLTVADLFYICSLPFWLQYVLQHDNWSHGDLSCQVCGILLYENIYISVGFLCCISVDRYLAVAHPFRFHQFRTLKAAVGVSVVIWAKELLTSIYFLMHEEVIEDENQHRVCFEHYPIQAWQRAINYYRFLVGFLFPICLLLASYQGILRAVRRSHGTQKSRKDQIQRLVLSTVVIFLACFLPYHVLLLVRNVWEASCDFAKGVFNAYHFSLLLTSFNCVADPVLYCFVSETTHRDLARLRGACLAFLTCSRTGRAREAYPLGAPEASGKSGAQGEEPELLTKLHPAFQTPNSPGSGGFPTGRLA [S252N] | -0.538 | -1.17 | -0.845 | -1.44 | -0.214 |
| MGNITADNSSMSCTIDHTIHQTLAPVVYVTVLVVGFPANCLSLYFGYLQIKARNELGVYLCNLTVADLFYICSLPFWLQYVLQHDNWSHGDLSCQVCGILLYENIYISVGFLCCISVDRYLAVAHPFRFHQFRTLKAAVGVSVVIWAKELLTSIYFLMHEEVIEDENQHRVCFEHYPIQAWQRAINYYRFLVGFLFPICLLLASYQGILRAVRRSHGTQKSRKDQIQRLVLSTVVIFLACFLPYHVLLLVRRVWEASCDFAKGVFNAYHFSLLLTSFNCVADPVLYCFVSETTHRDLARLRGACLAFLTCSRTGRAREAYPLGAPEASGKSGAQGEEPELLTKLHPAFQTPNSPGSGGFPTGRLA [S252R] | -1.29 | -0.451 | -1.28 | -0.652 | -1.43 |
| MGNITADNSSMSCTIDHTIHQTLAPVVYVTVLVVGFPANCLSLYFGYLQIKARNELGVYLCNLTVADLFYICSLPFWLQYVLQHDNWSHGDLSCQVCGILLYENIYISVGFLCCISVDRYLAVAHPFRFHQFRTLKAAVGVSVVIWAKELLTSIYFLMHEEVIEDENQHRVCFEHYPIQAWQRAINYYRFLVGFLFPICLLLASYQGILRAVRRSHGTQKSRKDQIQRLVLSTVVIFLACFLPYHVLLLVRPVWEASCDFAKGVFNAYHFSLLLTSFNCVADPVLYCFVSETTHRDLARLRGACLAFLTCSRTGRAREAYPLGAPEASGKSGAQGEEPELLTKLHPAFQTPNSPGSGGFPTGRLA [S252P] | -0.641 | -1.27 | -1.37 | -0.959 | – |
